The source of these data is PMC9911399, “Two distinct binding modes provide the RNA-binding protein RbFox with extraordinary sequence specificity”.

Numbering of substitutions follows the chain as printed; changes in the protein carry UniProt numbers. This is one part of the list.

First the molecules themselves.
B1: UCUGGAA (DNA:RNA)
RNA: GGGAGACCGGAAUUCAGAUUGUCCUCUGGAAUUAAAUCCCGUCGUAGCCACCA
DNA 1: CAATCTGAATTCCGGTCTCCC
DNA 2: TGGTGGCTACGACGGGATT
B2: CCCCGUA (DNA:RNA)
RNA: B1 RNA with U25C, U27C, G28C, A30U
DNA 1: CAATCTGAATTCCGGTCTCCC
DNA 2: TGGTGGCTACGACGGGATT
B3: CAAGCGU (DNA:RNA)
RNA: B1 RNA with U25C, C26A, U27A, G29C, A30G, A31U
DNA 1: CAATCTGAATTCCGGTCTCCC
DNA 2: TGGTGGCTACGACGGGATT
B4: UUAAUCA (DNA:RNA)
RNA: B1 RNA with C26U, U27A, G28A, G29U, A30C
DNA 1: CAATCTGAATTCCGGTCTCCC
DNA 2: TGGTGGCTACGACGGGATT
B5: CAUAGUG (DNA:RNA)
RNA: B1 RNA with U25C, C26A, G28A, A30U, A31G
DNA 1: CAATCTGAATTCCGGTCTCCC
DNA 2: TGGTGGCTACGACGGGATT
B6: UCAGUCA (DNA:RNA)
RNA: B1 RNA with U27A, G29U, A30C
DNA 1: CAATCTGAATTCCGGTCTCCC
DNA 2: TGGTGGCTACGACGGGATT
B7: CCCGGUG (DNA:RNA)
RNA: B1 RNA with U25C, U27C, A30U, A31G
DNA 1: CAATCTGAATTCCGGTCTCCC
DNA 2: TGGTGGCTACGACGGGATT
B8: CAACACA (DNA:RNA)
RNA: B1 RNA with U25C, C26A, U27A, G28C, G29A, A30C
DNA 1: CAATCTGAATTCCGGTCTCCC
DNA 2: TGGTGGCTACGACGGGATT
B9: UUUCCCA (DNA:RNA)
RNA: B1 RNA with C26U, G28C, G29C, A30C
DNA 1: CAATCTGAATTCCGGTCTCCC
DNA 2: TGGTGGCTACGACGGGATT
B10: GGCGUGA (DNA:RNA)
RNA: B1 RNA with U25G, C26G, U27C, G29U, A30G
DNA 1: CAATCTGAATTCCGGTCTCCC
DNA 2: TGGTGGCTACGACGGGATT
B11: GGUGCUU (DNA:RNA)
RNA: B1 RNA with U25G, C26G, G29C, A30U, A31U
DNA 1: CAATCTGAATTCCGGTCTCCC
DNA 2: TGGTGGCTACGACGGGATT
B12: UAGGAAU (DNA:RNA)
RNA: B1 RNA with C26A, U27G, G29A, A31U
DNA 1: CAATCTGAATTCCGGTCTCCC
DNA 2: TGGTGGCTACGACGGGATT
B13: GGUAUAU (DNA:RNA)
RNA: B1 RNA with U25G, C26G, G28A, G29U, A31U
DNA 1: CAATCTGAATTCCGGTCTCCC
DNA 2: TGGTGGCTACGACGGGATT
B14: AGCGCUU (DNA:RNA)
RNA: B1 RNA with U25A, C26G, U27C, G29C, A30U, A31U
DNA 1: CAATCTGAATTCCGGTCTCCC
DNA 2: TGGTGGCTACGACGGGATT
B15: AGGGCUG (DNA:RNA)
RNA: B1 RNA with U25A, C26G, U27G, G29C, A30U, A31G
DNA 1: CAATCTGAATTCCGGTCTCCC
DNA 2: TGGTGGCTACGACGGGATT
B16: GGUGGUA (DNA:RNA)
RNA: B1 RNA with U25G, C26G, A30U
DNA 1: CAATCTGAATTCCGGTCTCCC
DNA 2: TGGTGGCTACGACGGGATT
B17: GUCCGCC (DNA:RNA)
RNA: B1 RNA with U25G, C26U, U27C, G28C, A30C, A31C
DNA 1: CAATCTGAATTCCGGTCTCCC
DNA 2: TGGTGGCTACGACGGGATT
B18: ACUAAGC (DNA:RNA)
RNA: B1 RNA with U25A, G28A, G29A, A30G, A31C
DNA 1: CAATCTGAATTCCGGTCTCCC
DNA 2: TGGTGGCTACGACGGGATT
B19: CCGGUUC (DNA:RNA)
RNA: B1 RNA with U25C, U27G, G29U, A30U, A31C
DNA 1: CAATCTGAATTCCGGTCTCCC
DNA 2: TGGTGGCTACGACGGGATT
B20: GCGCGCC (DNA:RNA)
RNA: B1 RNA with U25G, U27G, G28C, A30C, A31C
DNA 1: CAATCTGAATTCCGGTCTCCC
DNA 2: TGGTGGCTACGACGGGATT
B21: CGGUAUU (DNA:RNA)
RNA: GGGAGACCGGAAUUCAGAUUGUCCCGGUAUUUUAAAUCCCGUCGUAGCCACCA
DNA 1: CAATCTGAATTCCGGTCTCCC
DNA 2: TGGTGGCTACGACGGGATT
B22: UCAUUUA (DNA:RNA)
RNA: B1 RNA with U27A, G28U, G29U, A30U
DNA 1: CAATCTGAATTCCGGTCTCCC
DNA 2: TGGTGGCTACGACGGGATT
B23: GCCCCCG (DNA:RNA)
RNA: B1 RNA with U25G, U27C, G28C, G29C, A30C, A31G
DNA 1: CAATCTGAATTCCGGTCTCCC
DNA 2: TGGTGGCTACGACGGGATT
B24: GGCCUAU (DNA:RNA)
RNA: B21 RNA with C25G, G27C, U28C, A29U, U30A
DNA 1: CAATCTGAATTCCGGTCTCCC
DNA 2: TGGTGGCTACGACGGGATT
B25: AUAAACA (DNA:RNA)
RNA: B21 RNA with C25A, G26U, G27A, U28A, U30C, U31A
DNA 1: CAATCTGAATTCCGGTCTCCC
DNA 2: TGGTGGCTACGACGGGATT
B26: UACUAAG (DNA:RNA)
RNA: B21 RNA with C25U, G26A, G27C, U30A, U31G
DNA 1: CAATCTGAATTCCGGTCTCCC
DNA 2: TGGTGGCTACGACGGGATT
B27: UAAGAUA (DNA:RNA)
RNA: B1 RNA with C26A, U27A, G29A, A30U
DNA 1: CAATCTGAATTCCGGTCTCCC
DNA 2: TGGTGGCTACGACGGGATT
B28: ACCAUUG (DNA:RNA)
RNA: B21 RNA with C25A, G26C, G27C, U28A, A29U, U31G
DNA 1: CAATCTGAATTCCGGTCTCCC
DNA 2: TGGTGGCTACGACGGGATT
B29: AAGCCUA (DNA:RNA)
RNA: B21 RNA with C25A, G26A, U28C, A29C, U31A
DNA 1: CAATCTGAATTCCGGTCTCCC
DNA 2: TGGTGGCTACGACGGGATT
B30: GAAGUAU (DNA:RNA)
RNA: B1 RNA with U25G, C26A, U27A, G29U, A31U
DNA 1: CAATCTGAATTCCGGTCTCCC
DNA 2: TGGTGGCTACGACGGGATT
B31: CUAGCCA (DNA:RNA)
RNA: B1 RNA with U25C, C26U, U27A, G29C, A30C
DNA 1: CAATCTGAATTCCGGTCTCCC
DNA 2: TGGTGGCTACGACGGGATT

The assay concerns the target T1, RBFOX1 RRM (Homo sapiens, UniProt Q9NWB1 109-208).
T1 sequence: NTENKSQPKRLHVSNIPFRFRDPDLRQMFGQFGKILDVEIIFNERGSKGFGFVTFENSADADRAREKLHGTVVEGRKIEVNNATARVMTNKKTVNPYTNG
Kind of assay: EMSA; HiTS-Eq, 1 nM pool, 10 min; buffer printed only for the single-RNA assays: 10 mM Tris pH 7.5, 150 mM NaCl, 3.4 mM EDTA, 0.001% NP-40, 30 C. Particulars: tags: His6 N-terminal (pET28a); label: 5' 32P. In outline: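 These values rest on relative association constants, computed from read-count changes of each RNA species versus the control reaction and normalised to the cognate motif. Reads came from free RNA recovered by 8% native PAGE after purified RbFox RRM (wild type or mutant) at increasing concentrations was equilibrated for 10 min in 50 µL with 1 nM of a 5′-radiolabelled pool with 7 randomized nucleotides and DNA-annealed flanks.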
(In general: A gel shift assay detects complexes by their altered migration in electrophoresis.)
As to B1, the binding signal is 0.00885 KA relative to UGCAUGU. B2: the binding signal was 0.00304 KA relative to UGCAUGU. For B3 the value was 0.00823 KA relative to UGCAUGU; for B4, 0.00562 KA relative to UGCAUGU. As for B5, the binding signal was 0.00893 KA relative to UGCAUGU.

Consider B6, for which the binding signal was 0.00473 KA relative to UGCAUGU. As to B7, the binding signal was 0.00625 KA relative to UGCAUGU. As for B8, the binding signal was 0.0017 KA relative to UGCAUGU. To B9 belongs 0.00486 KA relative to UGCAUGU; to B10, 0.01 KA relative to UGCAUGU; to B11, 0.0178 KA relative to UGCAUGU. For the molecule B12, the binding signal is 0.00781 KA relative to UGCAUGU. With B13, the binding signal was 0.0017 KA relative to UGCAUGU. On to B14, for which the binding signal is 0.00875 KA relative to UGCAUGU.

With B15, the binding signal is 0.0262 KA relative to UGCAUGU.

On to B16, for which the binding signal was 0.0276 KA relative to UGCAUGU. In the case of B17, the binding signal was 0.0105 KA relative to UGCAUGU. B18: the binding signal is 0.00409 KA relative to UGCAUGU. Take B19: the binding signal was 0.00923 KA relative to UGCAUGU. With B20, the binding signal is 0.0164 KA relative to UGCAUGU. In the case of B21, the binding signal is 0.00739 KA relative to UGCAUGU. On to B22, for which the binding signal is 0.00106 KA relative to UGCAUGU. For the molecule B23, the binding signal is 0.0144 KA relative to UGCAUGU. Consider B24, for which the binding signal was 0.00391 KA relative to UGCAUGU. To B25 belongs 0.00193 KA relative to UGCAUGU. As to B26, the binding signal was 0.0139 KA relative to UGCAUGU. For B27 the value was 0.00922 KA relative to UGCAUGU; for B28, 0.00628 KA relative to UGCAUGU. For B29 the value was 0.000665 KA relative to UGCAUGU. As for B30, the binding signal was 0.00636 KA relative to UGCAUGU.

In the case of B31, the binding signal is 0.00555 KA relative to UGCAUGU.
